Measured values as given in the supplement of paper PMC3334620.
In all, about 33,000 sequences were measured (“E-score (-0.5 to 0.5)”: median about -0.01, highest 2% from about 0.26 on). The list shows a part of the results.

These sequences were tested against Ste12 (UniProt P13574) (assay: PBM E-score (8-mer binding enrichment) (E-score (-0.5 to 0.5)); higher = stronger / more preferred TF binding; most listed sequences are background and not binding sites). Details: protein concentration: 200 nM; construct: GST-DNA-binding domain.
Method in brief: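 Bound GST-tagged yeast transcription factors, applied at about 100-200 nM to double-stranded universal all-10-mer Agilent arrays, were detected with fluorescent anti-GST. Scans were normalised with masliner. A modified Wilcoxon-Mann-Whitney statistic, the E-score, was assigned to each ungapped eight-base word pooled with its reverse complement by the Universal PBM Analysis Suite.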
In the case of ACCGCCTA, the “PBM E-score” value was -0.0957. For ACAGCACC, the “PBM E-score” value was -0.172. In the case of CCATTTTC, the “PBM E-score” value was 0.0892. For CATATTAA, the “PBM E-score” value was 0.184. In the case of ACAGCCGG, the “PBM E-score” value was -0.00808. ACCAAGCA was tested, and the “PBM E-score” value was 0.0769. For CAGTGAAA, the “PBM E-score” value was 0.197. ATGTCTGA was tested, and the “PBM E-score” value was 0.179. For AAGCTCGA, the “PBM E-score” value was 0.0599. With ACTGTTAC the “PBM E-score” value was 0.124. With CTAATTCA the “PBM E-score” value was 0.128. CGCATGTA was tested, and the “PBM E-score” value was -0.0582. With CGTACAAG the “PBM E-score” value was -0.0142. With ATGTCGTG the “PBM E-score” value was -0.203. With AGTTATAA the “PBM E-score” value was 0.133. With AGGAGAAC the “PBM E-score” value was -0.152. With CGTTGTAC the “PBM E-score” value was 0.0278. For ATGGAGTA, the “PBM E-score” value was -0.106. CCGCATAC was tested, and the “PBM E-score” value was 0.0672. With GGTCAGCA the “PBM E-score” value was 0.224. GCGTATAC was tested, and the “PBM E-score” value was 0.146. ATCCAGCA was tested, and the “PBM E-score” value was -0.0382. In the case of ATACACTC, the “PBM E-score” value was 0.0368. With CTCAAGGC the “PBM E-score” value was -0.0817. With CAACGTCG the “PBM E-score” value was -0.0477. GACGCGGA was tested, and the “PBM E-score” value was -0.0862. For ATGTGCTC, the “PBM E-score” value was -0.118. ATCCCATG was tested, and the “PBM E-score” value was 0.0232. AATTCTGA was tested, and the “PBM E-score” value was 0.229. In the case of GTCCTCAA, the “PBM E-score” value was -0.0951. CGGGTCCC was tested, and the “PBM E-score” value was -0.199. With GTGAGGGA the “PBM E-score” value was -0.277. TAAGCACA was tested, and the “PBM E-score” value was -0.025. With ATGATTCC the “PBM E-score” value was 0.102. For GAGTCGAA, the “PBM E-score” value was 0.16. With ACTTTACC the “PBM E-score” value was 0.108. With TGGGATAA the “PBM E-score” value was -0.051. With TCCTAGGA the “PBM E-score” value was -0.147. GGCGCGTA was tested, and the “PBM E-score” value was -0.0805. In the case of GATATTCC, the “PBM E-score” value was 0.00474. For CCCCCCTA, the “PBM E-score” value was -0.141. CGCATATA was tested, and the “PBM E-score” value was 0.0722. TATGCACA was tested, and the “PBM E-score” value was -0.111. With AGAGCTCG the “PBM E-score” value was -0.0466. For GTCTCGGA, the “PBM E-score” value was 0.0796. With AGGCTTGC the “PBM E-score” value was -0.248. With CCTGATAG the “PBM E-score” value was -0.147. With ATCGGTCC the “PBM E-score” value was -0.0969. For CCAGCATA, the “PBM E-score” value was 0.0424. In the case of ACACTTCA, the “PBM E-score” value was -0.0403. In the case of CTTCAGGA, the “PBM E-score” value was 0.092. In the case of AGTCAAAA, the “PBM E-score” value was 0.207. In the case of GAAAGTAA, the “PBM E-score” value was 0.14. AAGTGACG was tested, and the “PBM E-score” value was 0.0316. ACCGCCAG was tested, and the “PBM E-score” value was 0.171. For CCCATAGA, the “PBM E-score” value was -0.143. For CGCTAAAA, the “PBM E-score” value was 0.135. GTGCGCAC was tested, and the “PBM E-score” value was 0.355. In the case of ACATCGGT, the “PBM E-score” value was -0.116. With AAGAGCAA the “PBM E-score” value was 0.0033. For TAAAGTAA, the “PBM E-score” value was 0.175. With ACCTCAAG the “PBM E-score” value was 0.0479. In the case of CATTGAAC, the “PBM E-score” value was 0.0664. For AATGACAT, the “PBM E-score” value was 0.0705. CTTCATGC was tested, and the “PBM E-score” value was -0.224. AGCGTCAC was tested, and the “PBM E-score” value was -0.132. CTTGACCC was tested, and the “PBM E-score” value was -0.129. In the case of AGATCAGG, the “PBM E-score” value was -0.124. With GTTCTATA the “PBM E-score” value was 0.0445. For GAGGTGGA, the “PBM E-score” value was -0.131. In the case of GCCGAGGA, the “PBM E-score” value was 0.162. In the case of ACCGAAGG, the “PBM E-score” value was -0.251. In the case of AGAAGTAT, the “PBM E-score” value was 0.156. In the case of CGCGTAGA, the “PBM E-score” value was -0.0217. With GGAGCAGA the “PBM E-score” value was -0.0933. With AGAAGGTC the “PBM E-score” value was -0.0684. In the case of CATACCTA, the “PBM E-score” value was 0.0133. For ACGTGCCG, the “PBM E-score” value was -0.00448. CAATAGAG was tested, and the “PBM E-score” value was -0.0569. With AGCACGGG the “PBM E-score” value was 0.0104. CCCCCGGG was tested, and the “PBM E-score” value was -0.0357. With TCGTGACA the “PBM E-score” value was 0.141. For CTGGAAAA, the “PBM E-score” value was 0.0857. In the case of ACCACAGC, the “PBM E-score” value was -0.153. In the case of CTGCGGAC, the “PBM E-score” value was -0.228. In the case of CTAGTTAA, the “PBM E-score” value was -0.0553. For AACTCGGC, the “PBM E-score” value was 0.111. For GGGTCCAC, the “PBM E-score” value was -0.322. With ACTGCAGA the “PBM E-score” value was -0.0913. With AGATAGGC the “PBM E-score” value was 0.0647. With CCTCGTCG the “PBM E-score” value was 0.0143. For CAGGGGTC, the “PBM E-score” value was -0.119. With TGGAGCCA the “PBM E-score” value was -0.186. AAGACTGG was tested, and the “PBM E-score” value was -0.13. For CGACAGAG, the “PBM E-score” value was 0.00598. With CGAGTCCG the “PBM E-score” value was 0.0966. In the case of TACTAAGA, the “PBM E-score” value was 0.0543. For GTGGAACA, the “PBM E-score” value was 0.144. In the case of CTGCCGGC, the “PBM E-score” value was -0.0671. With AGAAATTA the “PBM E-score” value was 0.123. For AGAGGAGA, the “PBM E-score” value was -0.212. For CAACGAAC, the “PBM E-score” value was 0.0512. For AACTACTT, the “PBM E-score” value was -0.00699. CAAGCGGG was tested, and the “PBM E-score” value was -0.166. In the case of GGGGTCAC, the “PBM E-score” value was -0.101. In the case of CACAGGTA, the “PBM E-score” value was 0.0125. In the case of CTACCTAC, the “PBM E-score” value was -0.143. With TAGATTGA the “PBM E-score” value was 0.0662. CCATATCG was tested, and the “PBM E-score” value was 0.0636. With ACTAAGCC the “PBM E-score” value was -0.102. In the case of ACCCTTCA, the “PBM E-score” value was -0.0288. In the case of CCTTATAG, the “PBM E-score” value was 0.0705. With ATGCCGGA the “PBM E-score” value was -0.0366. In the case of GGCCGGTA, the “PBM E-score” value was 0.0473. In the case of TAAGGGTA, the “PBM E-score” value was -0.164. In the case of CAATAACC, the “PBM E-score” value was 0.116. With TCTCCCCA the “PBM E-score” value was 0.00114. With TACCCACA the “PBM E-score” value was -0.104. GAAACAGA was tested, and the “PBM E-score” value was 0.287. ATGCCGAG was tested, and the “PBM E-score” value was 0.0547. In the case of CCGGCTCA, the “PBM E-score” value was 0.062. With CAGGCCGC the “PBM E-score” value was -0.24. GTAAATTA was tested, and the “PBM E-score” value was 0.18. In the case of ACCTTCAG, the “PBM E-score” value was -0.148. For TGGTTACA, the “PBM E-score” value was 0.128. For ATACCTTC, the “PBM E-score” value was 0.0612. For ACCAGAAG, the “PBM E-score” value was -0.0252. With ACAGACTA the “PBM E-score” value was 0.041. For ATGGACTA, the “PBM E-score” value was -0.145. For CGTATGAA, the “PBM E-score” value was 0.213. In the case of CTTCTTTA, the “PBM E-score” value was 0.105. For CACACGAA, the “PBM E-score” value was 0.0582. AAACCCGC was tested, and the “PBM E-score” value was 0.256. ATTCCAAT was tested, and the “PBM E-score” value was 0.108. With AAGGCGCG the “PBM E-score” value was -0.023. ATGCAATC was tested, and the “PBM E-score” value was 0.044. With CACCTTGG the “PBM E-score” value was -0.0715. For GCAGGCTA, the “PBM E-score” value was -0.187. In the case of ACGTGGGC, the “PBM E-score” value was -0.245. In the case of CTGCCGGA, the “PBM E-score” value was 0.107. AAATTGGT was tested, and the “PBM E-score” value was 0.231. ATTTCCGG was tested, and the “PBM E-score” value was 0.208. For ATCTTCAG, the “PBM E-score” value was 0.0575. In the case of GTGTGGCA, the “PBM E-score” value was -0.159. For CTCGATTC, the “PBM E-score” value was -0.113. With GCAAGTAA the “PBM E-score” value was 0.0527. With AACCGAAT the “PBM E-score” value was 0.15. ATCTGTCA was tested, and the “PBM E-score” value was 0.0283. With AAATATCC the “PBM E-score” value was 0.0562. With ACGCCGAC the “PBM E-score” value was -0.0253. With TCGGTTAA the “PBM E-score” value was 0.198. CGGGTGGA was tested, and the “PBM E-score” value was -0.066. With CTGCGAGC the “PBM E-score” value was 0.0456. In the case of ACTGAGAC, the “PBM E-score” value was -0.0186. In the case of ATGGCTTC, the “PBM E-score” value was -0.0931. ATTACGCC was tested, and the “PBM E-score” value was -0.0562. For ACCATCTC, the “PBM E-score” value was 0.0579. In the case of CCCTCACA, the “PBM E-score” value was -0.0551. In the case of AGAGGACC, the “PBM E-score” value was -0.211. CTTTTGGA was tested, and the “PBM E-score” value was 0.134. With CCGATACC the “PBM E-score” value was -0.231. In the case of TCCAGAGA, the “PBM E-score” value was -0.211. TCAATAAA was tested, and the “PBM E-score” value was 0.0901. In the case of AGTGCGAT, the “PBM E-score” value was 0.139. TCTGCCCA was tested, and the “PBM E-score” value was -0.173. In the case of GGTTTTGA, the “PBM E-score” value was 0.111. GGTTCAGA was tested, and the “PBM E-score” value was -0.0174. With ACCACCGA the “PBM E-score” value was -0.0704. CGACAAAA was tested, and the “PBM E-score” value was 0.114. For CTGGACAA, the “PBM E-score” value was -0.177. CAACCCAG was tested, and the “PBM E-score” value was -0.0384. For CCTCCTGC, the “PBM E-score” value was -0.0477.
